Results on one compound are retold here after patent publication US5840936A, “Aminosterol compounds useful as inhibitors of the sodium/proton exchanger (NHE)” (priority 1995, dated 1998).

In the series the test system is L1210 lymphoblastic leukemia. As to the kind of experiment: Mouse model of L1210 leukemia. The conditions noted are these: in vivo.

In the case of `CC(C)[C@@H](CC[C@@H](C)[C@H]1CC[C@H]2[C@@H]3[C@H](O)C[C@H]4C[C@@H](NCCCNCCCCNCCCN)CC[C@]4(C)[C@H]3CC[C@]12C)OS(=O)(=O)O` [Compound 1436], the “Hematological profile” value is recorded as “near normal hematocrit, with evidence of a robust granulocyte count”.
